# Out of some 310,000 compounds screened, about 11,000 (3.5%) were called active. This list was built around the results that the source calls inconclusive (neither active nor inactive); the mix of calls is not that of the screen. The call rests on the fitted dose curve; in most records, active means well fitted inhibition curve with a large enough effect; inconclusive means small, poorly fitted or top-dose-only effect, or effect the other way; inactive means flat fitted curve, though single readings scatter. No potency is given beside an inconclusive call; the fits are too rough.
# Assay: VP16 counterscreen qHTS for inhibitors of ROR gamma transcriptional activity;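 further: Gal4-VP16 expression switched on by copper sulfate through the metallothionein promoter; nearly all actives have a fitted effect of over 50% in size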
# Conditions: Drosophila S2 Gal4-VP16 UAS-luciferase, luminescence, 20 h; activity, negative = inhibition: at 53.6 µM (top of the series)
# On the % scale 0 is the no-effect control and ±100 the full control effect; potency means the concentration at half of the fitted maximal effect; tags describe the fitted curve by direction and shape.
Structure (SMILES),Potency,"activity, negative = inhibition"
C=CCN=c1scc(-c2ccc(F)cc2)n1/N=C/c1ccccn1,active: 11.2 µM,–
Cc1cc(C)cc(OCC(=O)NNC(=O)c2cc(C)[nH]n2)c1,–,inactive: 3.14%
Cc1ccc(Oc2nc(CN3CCOCC3)nc3sc4c(c23)CCC(C)C4)cc1C (configuration not stated),active: 11.2 µM,–
Cc1ccc(-c2csc(NC(=O)c3cccc(S(=O)(=O)N4CCN(C)CC4)c3)n2)cc1,–,inactive: -11.3%
CCCC(=O)Nc1ccc2oc(-c3cccnc3)nc2c1,"inconclusive [activator, single point]",–
NC(=S)N/N=C/c1ccccc1O,active: 6.31 µM,–
NNC(=O)c1cc2c(N3CCC(Cc4ccccc4)CC3)ncnc2s1,"inconclusive [inhibitor, partial curve, poor fit]",–
Cc1cccc(-c2nc3ccccc3c(=O)[nH]2)c1,–,inactive: 17.8%
Cc1ccn2cc(-c3ccc(NC(=O)c4ccco4)cc3)nc2c1,"inconclusive [inhibitor, single point]",–
COCc1nc2ccccc2n1CCc1ccccc1,"inconclusive [inhibitor, single point]",–
COC(=O)CC1c2ccccc2C=C(C)N1C(=O)OC (configuration not stated),–,inactive: -6.18%
Cc1cc(C)c2oc(C(=O)Nc3ccc(S(=O)(=O)N4CCCC(C)C4)cc3)cc(=O)c2c1 (configuration not stated),–,inactive: -5.48%
CNc1cc(CSc2ccc(Cl)cc2)nc(C)n1,"inconclusive [activator, single point]",–
C[C@@H]1CC2C3CCC4=CC(=O)C=C[C@]4(C)[C@@]3(F)[C@@H](O)C[C@]2(C)[C@@]1(O)C(=O)COC(=O)c1cccc(S(=O)(=O)O)c1 (some centres not stated),–,inactive: 6.03%
NC(=S)Nc1nc2ccccc2s1,active: 3.55 µM,–
COc1cc(NC(=O)NNC(=O)c2cc3occc3n2C)cc(OC)c1OC,"inconclusive [activator, single point]",–
CCN1CCC2(CC1)N=C(c1ccc(F)cc1)C(=S)N2C(=O)c1ccc(C)cc1,"inconclusive [inhibitor, single point]",–
Cc1sc2nc(C3CC3)nc(N3CCN(C(=O)c4ccc(Cl)cc4)CC3)c2c1C,–,inactive: -6.54%
CN(C)c1ccc(N2C(=O)CC(Sc3ccccc3C(=O)O)C2=O)cc1 (configuration not stated),active: 15.8 µM,–
Cc1cccc(NC(=S)NNc2ncc(C(F)(F)F)cc2Cl)c1,active: 12.6 µM,–
NS(=O)(=O)c1ccc(CCNC(=O)NC2(C(F)(F)F)Oc3ccccc3O2)cc1,"inconclusive [inhibitor, single point]",–
Cc1cc(C)c(C)c(S(=O)(=O)N2CCN(CC(=O)c3c(N)n(Cc4ccccc4)c(=O)n(C)c3=O)CC2)c1C,"inconclusive [inhibitor, partial curve]",–
O=C(CN1C(=O)CSc2ccccc21)Nc1ccccc1C(=O)N1CCOCC1,–,inactive: 0.0062%
COc1cc(C(O)c2nc3ccccc3n2C(C)C)cc(OC)c1OC (configuration not stated),"inconclusive [inhibitor, single point]",–

Structure (SMILES),Potency,"activity, negative = inhibition"
C(=C\c1ccccc1)/CN1CCN(c2ncnc3c2oc2ccccc23)CC1,active: 17.8 µM,–
O=C1c2cccnc2C(=O)N1CO,–,inactive: -7.95%
OC(c1nc2ccccc2[nH]1)C(O)c1nc2ccccc2[nH]1 (configuration not stated),–,inactive: 0.674%
Cc1ccc(Cn2c(=N)n(CC(=O)c3ccccc3)c3ccccc32)cc1,active: 14.1 µM,–
Cn1c(=O)n(C)c2cc(NC(=O)CCl)ccc21,"inconclusive [inhibitor, single point]",–
CCc1ccc(-c2csc(NC(=O)Oc3ccccc3)n2)cc1,"inconclusive [activator, partial curve, poor fit]",–
O=C(NNC(=O)C12CC3CC(CC(O)(C3)C1)C2)c1ccccc1O,–,inactive: 1.14%
COc1c2c(c(C(=O)/C=C/C(C)=C/c3ccccc3)c3c1OCO3)CCN(C)C2,–,inactive: -12%
CC1S/C(=N/N=C/c2ccco2)NC1=O (configuration not stated),"inconclusive [inhibitor, single point]",–
CCOC(=O)C1CCN(C2CC(=O)N(c3ccc(OCC)cc3)C2=O)CC1 (configuration not stated),"inconclusive [inhibitor, single point]",–
COc1cccc(C2c3[nH]c4ccccc4c3C[C@H]3C(=O)N(c4ccccc4C(=O)NCCCN4CCOCC4)C(=O)N23)c1 (some centres not stated),"inconclusive [inhibitor, single point]",–
Cc1ccc(C(C)C)c(OCC(=O)Nc2ccccc2N2CCN(C)CC2)c1,active: 12.6 µM,–
Cc1cc(C(=O)N/N=C/C=C/c2ccccc2)c(C)o1,active: 11.2 µM,–
Cc1[nH]n(-c2ccccc2)c(=O)c1-c1ccccc1,–,inactive: 5.76%
COc1ccc(/C=C/C(=O)Nc2ccc3c(c2)CCC3)cc1OC,active: 3.98 µM,–
CCOC(=O)N1CCC(n2c(SCC(=O)NCCC3=CCCCC3)nc3ccccc3c2=O)CC1,"inconclusive [inhibitor, single point]",–
Cc1ccc(C(=O)Nc2ccc(Cl)cc2C(F)(F)F)c(Cl)c1,"inconclusive [activator, full curve, poor fit]",–
Cn1cnnc1SCC(=O)Nc1ccc2nc(SCc3ccccc3Cl)sc2c1,"inconclusive [activator, single point]",–
C/C(=C\C(=O)c1ccc(C)cc1)Nc1cccc(O)c1,active: 3.55 µM,–
Oc1ccc(/C=N/N=C/c2ccc(O)c(O)c2)cc1O,"inconclusive [inhibitor, single point]",–
O=C(Nc1ccc(S(=O)(=O)Nc2ncccn2)cc1)c1ccccc1NS(=O)(=O)c1ccc(F)cc1,–,inactive: 4.78%
Nc1ncnc2c1nc(Cl)n2C1OC(CO)C(O)C1O (configuration not stated),–,inactive: -14.3%
CCC(=O)Nc1cnc(NC(=O)c2cccc(F)c2)cc1C,"inconclusive [inhibitor, single point]",–
Cc1cc2cc(C(c3nnnn3Cc3ccco3)N3CCCCC3)c(=O)[nH]c2cc1C (configuration not stated),–,inactive: 14.4%

Structure (SMILES),Potency,"activity, negative = inhibition"
COc1ccc(N2C(=O)C(Cl)=C(Nc3ccc(OC)cc3OC)C2=O)cc1,–,inactive: -12.8%
CC1(C)Cc2c(cnn2-c2ccccc2)C(NC(=O)C2(C(N)=O)CC2)C1 (configuration not stated),–,inactive: 16.1%
COc1ccc2oc(C(=O)c3ccccc3)c(NC(=O)CN3CCN(C)CC3)c2c1,"inconclusive [inhibitor, single point]",–
COc1ccc(C(=O)N/N=C/c2cc(Br)ccc2O)cc1OC,active: 4.47 µM,–
COc1cc([N+](=O)[O-])cc(/C=N/NC(=O)c2cncc(Br)c2)c1O,"inconclusive [inhibitor, partial curve]",–
CCCCCC1CC(CC(=O)NC(=S)Nc2ccccc2Cl)C(=O)O1 (configuration not stated),"inconclusive [inhibitor, single point]",–
Cc1cc(-c2ccccc2)nc(N/N=C/c2ccccc2)n1,"inconclusive [inhibitor, single point]",–
c1cncc(-c2nc(NCc3ccco3)c3ccccc3n2)c1,"inconclusive [inhibitor, single point]",–
CCn1c(COc2ccccc2OC)nc2ccccc21,"inconclusive [inhibitor, single point]",–
N#Cc1cc([N+](=O)[O-])ccc1N1CCCC1,–,inactive: 0.938%
CCOc1ccc(NC(=O)CSc2nc3nc(C)cc(C)n3n2)cc1,active: 11.2 µM,–
O=C(Nc1ccccc1)N1CCCc2ccccc21,"inconclusive [activator, single point]",–
COc1ccc(-c2cc(C(F)(F)F)nc(-n3cc(Cl)cn3)n2)cc1,"inconclusive [inhibitor, single point]",–
COc1ccc(-c2cc(C(=O)NCC3CCCO3)c3cc(C)ccc3n2)cc1 (configuration not stated),"inconclusive [activator, partial curve]",–
Cc1cc2cc(CCNC(=O)c3cccc([N+](=O)[O-])c3)c(=O)[nH]c2cc1C,–,inactive: -3.19%
CCOc1ccc(S(=O)(=O)Nc2ccc3c(c2)n(C)c(=O)n3C)cc1,active: 0.1 µM,–
C/C(=N\Nc1ccc(C)c(Cl)c1)c1ccncc1,"inconclusive [activator, single point]",–
CCCOc1ncnc2c1[nH]c1ccc(C)cc12,"inconclusive [inhibitor, single point]",–
CC(C)C[C@H](NC(=O)[C@@H]1CCCN1C(=O)[C@H](Cc1ccccc1)NC(=O)[C@H](C)NC(=O)[C@H](CCC(=O)O)NC(=O)[C@H](C)NC(=O)[C@H](CO)NC(=O)[C@H](CCC(=O)O)NC(=O)[C@H](CC(=O)O)NC(=O)[C@H](CCC(=O)O)NC(=O)[C@H](C)NC(=O)CNC(=O)[C@H](CC(N)=O)NC(=O)[C@@H]1CCCN1C(=O)[C@H](Cc1ccc(O)cc1)NC(=O)[C@@H](NC(=O)[C@H](CCCCN)NC(=O)[C@@H](NC(=O)[C@@H]1CCCN1C(=O)[C@@H](N)CCCNC(=N)N)C(C)C)C(C)C)C(=O)N[C@@H](CCC(=O)O)C(=O)N[C@@H](Cc1ccccc1)C(=O)O,–,inactive: 1.86%
CCC(C)c1ccc(O)c(/C=N/O)c1 (configuration not stated),"inconclusive [inhibitor, single point]",–
CCC(C)c1ccccc1NC(=S)Nc1cccnc1 (configuration not stated),"inconclusive [inhibitor, partial curve]",–
Cc1cccc(NC(=O)c2nc(S(=O)(=O)Cc3ccccc3)ncc2Cl)c1,active: 4.47 µM,–
O=C1C(=O)N(CNc2cccnc2)c2ccccc21,"inconclusive [inhibitor, partial curve, poor fit]",–
O=C(NC(=S)N1CCN(c2ccc([N+](=O)[O-])cc2)CC1)c1ccc(F)cc1,active: 1 µM,–
